The source of these data is PMC6919601, “Identification of Plasmodium dipeptidyl aminopeptidase allosteric inhibitors by high throughput screening” (PLoS ONE, 2019).

Among all 110,000 compounds or so, about 230 (0.21%) showed an effect of 50% or more. This is one part of the list.
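Also: 30 min substrate incubation versus DMSO and 10 µM JCP410 controls.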

Chain of DPAP1 (Q8IIJ9 whole entry, looked up): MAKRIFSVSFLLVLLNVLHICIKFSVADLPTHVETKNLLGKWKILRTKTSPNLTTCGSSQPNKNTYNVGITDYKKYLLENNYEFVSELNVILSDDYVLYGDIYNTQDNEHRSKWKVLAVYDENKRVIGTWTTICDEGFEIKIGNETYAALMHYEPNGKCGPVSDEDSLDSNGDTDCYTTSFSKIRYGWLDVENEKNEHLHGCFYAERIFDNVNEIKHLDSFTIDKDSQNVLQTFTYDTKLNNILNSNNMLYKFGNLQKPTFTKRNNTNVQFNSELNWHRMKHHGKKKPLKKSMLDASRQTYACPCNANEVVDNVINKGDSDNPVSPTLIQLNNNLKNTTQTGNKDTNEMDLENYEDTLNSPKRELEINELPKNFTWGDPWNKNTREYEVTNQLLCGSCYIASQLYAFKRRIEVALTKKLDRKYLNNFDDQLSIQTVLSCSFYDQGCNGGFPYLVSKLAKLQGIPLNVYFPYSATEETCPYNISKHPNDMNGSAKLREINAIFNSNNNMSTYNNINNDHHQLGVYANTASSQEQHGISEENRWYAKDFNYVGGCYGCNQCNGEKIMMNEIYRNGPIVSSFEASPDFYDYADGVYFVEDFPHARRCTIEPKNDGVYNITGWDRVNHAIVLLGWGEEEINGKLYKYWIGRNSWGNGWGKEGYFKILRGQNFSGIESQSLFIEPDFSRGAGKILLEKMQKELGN

The assay concerns the target DPAP1 (Plasmodium falciparum, UniProt Q8IIJ9). In words: primary screen, percent inhibition; read by cleavage of a fluorogenic dipeptide substrate; higher = more effect of the substance. Also noted: species or system P. falciparum D10 trophozoite lysates; single well.
Take `CCCc1c(C(=O)OCC)[nH]c2c1C(=O)CCC2`: the “% Inhibition @ 10 uM” value amounted to 4.63%.
The value for `COc1ccc(C(=O)CSc2nc(-c3ccco3)nc3c2c(=O)n(C)c(=O)n3C)cc1` was 2.34%; that for `CC(=O)c1cccc(NS(=O)(=O)c2cccc(C(=O)Nc3ccccc3C(=O)O)c2)c1` was -0.622%.
In the case of `C#CCN(CC(=O)C(C)(C)C)C(C)(C)C`, the “% Inhibition @ 10 uM” value was -1.5%.
Turning to `Cn1cccc1/C=C1\CCc2ccccc2C1=O`, the “% Inhibition @ 10 uM” value is 1.07%.
Consider `S=c1sc2ccccc2n1CN1CCOCC1`, for which the “% Inhibition @ 10 uM” value is listed as 13.1%.
As to `Cc1ccc(/C=C2\CC(NCc3ccccc3)C(=O)O2)o1` (stereo not shown), the “% Inhibition @ 10 uM” value is -2.41%.
Turning to `O=C(Nc1nc(-c2ccc(Cl)cc2Cl)cs1)C1CCCO1` (stereo not shown), the “% Inhibition @ 10 uM” value came to 0.408%.
On to `CCCC(O)(c1ccc(Cl)cc1)C(CN1CCOCC1)c1ccccc1` (stereo not shown), for which the “% Inhibition @ 10 uM” value is reported as -2.38%.
Regarding `COc1ccc(C(=O)Cn2c(-c3ccc(OC)cc3)c(-c3ccc(OC)cc3)oc2=O)cc1`, the “% Inhibition @ 10 uM” value amounted to 14.5%.
Then `Cc1nc2nc(CN)nn2c(C)c1CCC(=O)NCc1ccccc1Cl`, with -0.447%; and `O=C(NCc1ccccn1)/C(=C/c1ccccc1Cl)c1ccccc1`, with -3.14%.
Consider `CCOc1ccc(-c2cc(OC)nc(N)n2)cc1`, for which the “% Inhibition @ 10 uM” value was determined as 1.96%.
For `COc1ccc2c(c1OC)C(=O)N(c1ccc(NC(C)=O)cc1)C2=O`, the “% Inhibition @ 10 uM” value is given as 5.09%.
For the compound `c1ccc(-n2nnnc2CSc2nc[nH]n2)cc1`, the “% Inhibition @ 10 uM” value was -2.85%.
On to `Clc1cccc(N2CCN(CC3CC=CCC3)CC2)c1` (stereo not shown), for which the “% Inhibition @ 10 uM” value is listed as 4.51%.
On to `O=C(Nc1ccc(Cl)cn1)c1cccc(OCc2ccccc2)c1`, for which the “% Inhibition @ 10 uM” value is reported as 15.9%.
The value for `CC1(C)CCCC(CO)=C1CSc1ccccc1` was -2.8%; that for `CCn1c(SCC(=O)Nc2ccccc2OC)nc2c1c(=O)n(C)c(=O)n2C` was -7.4%.
Turning to `O=C(c1ccc(Cl)c([N+](=O)[O-])c1)N1CCCC1`, the “% Inhibition @ 10 uM” value was -0.0217%.
For `Oc1ccccc1C1=NN2C(C1)c1ccccc1OC21CCCC1` (stereo not shown), the “% Inhibition @ 10 uM” value is listed as -5.36%.
The value for `CCCC(=O)C1=C(NC)CC(c2ccccc2)CC1=O` (stereo not shown) was -2.88%.
Regarding `Cc1ccnc2nc(NC(=O)c3ccc(C(C)(C)C)cc3)nn12`, the “% Inhibition @ 10 uM” value is listed as -4.91%.
Then `O=c1c(O)c(Cl)cnn1-c1ccccc1`, with 3.85%.
Consider `CC(C)CC(C(=O)NC(C)c1ccccc1)N1C(=O)c2ccccc2C1=O` (stereo not shown), for which the “% Inhibition @ 10 uM” value is recorded as 4.01%.
With `CCN(CC)S(=O)(=O)c1ccc(NC(=O)c2ccc(C)cc2)cc1`, the “% Inhibition @ 10 uM” value is reported as -3.11%.
As to `CCCNC(=O)CS(=O)Cc1nc(-c2cccc(C)c2)oc1C` (stereo not shown), the “% Inhibition @ 10 uM” value is -1.05%.
For the compound `Nc1n[nH]c(SCC(=O)Nc2cccc(-c3nc4ccccc4s3)c2)n1`, the “% Inhibition @ 10 uM” value is given as -0.622%.
Consider `CCN1CCN(CCCSC)CC1`, for which the “% Inhibition @ 10 uM” value is recorded as -4.98%.
The value for `COc1cccc(C2C3=C(O)CC(C)(C)CC3=Nc3nc(-c4cccc(Cl)c4)nn32)c1OC` (stereo not shown) was 0.275%.
The value for `Cc1ccc(Nc2cc(O)nc(O)n2)cc1` was -4.75%; that for `CC1(C)CC(=O)C2=C(C1)N(c1c(F)cccc1F)C(N)=C(C#N)C2c1cccnc1` (stereo not shown) was -2.68%; that for `CCOC(=O)c1cc(-c2ccc(F)cc2)n(CCC(=O)NC(C)CC)c1C` (stereo not shown) was 1.47%.
Regarding `COc1cccc(-c2cn3c(n2)sc2cc(C(=O)NC(C)C)ccc23)c1`, the “% Inhibition @ 10 uM” value is listed as 1.64%.
With `O=C(O)c1ccc(Oc2ccc([N+](=O)[O-])cc2)cc1C(=O)O`, the “% Inhibition @ 10 uM” value is reported as -0.128%.
Take `COc1ccc(NC(=O)/C(=C/c2ccc3c(c2)OCO3)NC(=O)c2ccc(OC)cc2)cc1`: the “% Inhibition @ 10 uM” value is given as -6.36%.
As to `CCOc1cc(Cl)c(C(C)NC(=O)c2ccccc2)cc1OCC` (stereo not shown), the “% Inhibition @ 10 uM” value is 6.92%.
In the case of `CCC(c1nc2ccccc2n1C)C(O)c1ccccc1` (stereo not shown), the “% Inhibition @ 10 uM” value was determined as 5.16%.
For `CCC(=O)Nc1nc(-c2ccccc2)ns1`, the “% Inhibition @ 10 uM” value is -6.55%.
Then `O=C(O)CCCC(=O)Nc1cc(C(F)(F)F)ccc1Cl`, with -2.63%; and `CCOc1ccc(C2SC(NC(C)=O)=NN2C(C)=O)cc1` (stereo not shown), with 2.25%; and `NS(=O)(=O)c1ccc(NC(=O)COc2ccc(Br)cc2Cl)cc1`, with -0.185%.
For the compound `COc1cccc(NC(=O)c2ccc(N3C(=O)C4C5C=CC(C5)C4C3=O)cc2)c1` (stereo not shown), the “% Inhibition @ 10 uM” value is recorded as -2.92%.
For `Cc1oc(-c2ccc(C(=O)NCCCc3ccccc3)cc2)nc1CS(=O)c1ccccc1` (stereo not shown), the “% Inhibition @ 10 uM” value was -5.35%.
The value for `COc1ccc(CCNC(=O)c2ccc(Br)o2)cc1` was 0.163%; that for `O=C(Nc1ccccc1-n1cccc1)c1cccnc1` was -0.0555%.
Turning to `CCC(C)NS(=O)(=O)c1ccc2[nH]c3c(c2c1)CCCC3` (stereo not shown), the “% Inhibition @ 10 uM” value is 2.47%.
`O=C(O)C1C2C=CC(C2)C1C(=O)Nc1ccccc1` (stereo not shown): the “% Inhibition @ 10 uM” value is reported as 1.64%.
With `CC(C)c1ccc(C(=O)c2ccccc2C(=O)O)cc1`, the “% Inhibition @ 10 uM” value is on record as 3.47%.
Consider `O=C(CCS(=O)(=O)c1cccc2nonc12)NCc1ccc(Cl)cc1`, for which the “% Inhibition @ 10 uM” value is -1.2%.
Then `O=C(O)c1ccc(CNc2nc3ccc(Cl)cc3n3cnnc23)cc1`, with 4.33%.
As to `NC(=O)c1c(NC(=O)CN2C(=O)c3ccccc3S2(=O)=O)sc2c1CCCC2`, the “% Inhibition @ 10 uM” value came out at 11.2%.
Turning to `COc1ccc(OC)c(C2OC(c3ccc(C)cc3)=NN2C(C)=O)c1` (stereo not shown), the “% Inhibition @ 10 uM” value is reported as -0.385%.
As for `COc1nc(CC(=O)C2CC2)nc(N(C)C(=O)NS(=O)(=O)c2ccccc2Cl)n1`, the “% Inhibition @ 10 uM” value was -2.77%.
For `CCc1ccccc1NC(=O)c1ccc(OC)cc1`, the “% Inhibition @ 10 uM” value is reported as 5.43%.
For the compound `Nc1c(C(=O)NC2CCCC2)sc2nc(-c3ccc(F)cc3)ccc12`, the “% Inhibition @ 10 uM” value is -4.12%.
With `CCOC(=O)c1cnc2cc3c(cc2c1O)OCCO3`, the “% Inhibition @ 10 uM” value turned out to be 2.05%.
Take `COc1cc(C=O)ccc1OCc1nnnn1-c1ccccc1`: the “% Inhibition @ 10 uM” value is reported as -4.64%.
For the compound `Nc1c(NCCc2ccccc2)c2ccccc2oc1=O`, the “% Inhibition @ 10 uM” value worked out at 3.47%.
The value for `Cc1ccccc1NC(=O)c1[nH]cnc1C(=O)Nc1ccccn1` was -3.85%; that for `COc1ccc(-c2ccc(C#N)c(SCC(=O)Nc3ncc(C)s3)n2)cc1OC` was -0.68%.
For `CCCc1nc2c(C)cc(C)cc2c(N)c1CC`, the “% Inhibition @ 10 uM” value is recorded as 2.62%.
For `Cc1cc(C(=O)NCCCc2ccccc2)n(-c2ccccc2)n1`, the “% Inhibition @ 10 uM” value is -3.7%.
Then `Cc1onc(-c2c(Cl)cccc2Cl)c1C(=O)NC1CCCC1`, with 0.177%; and `Clc1ccc(OCCCn2ccnc2)cc1`, with 6.41%; and `Cc1n[nH]c(C)c1CCc1nc2c3ccccc3nc(NCc3cccnc3)n2n1`, with 4.16%.
Regarding `Cc1ccc2nc(NC(=O)C3CCN(S(=O)(=O)c4cccnc4)CC3)sc2c1`, the “% Inhibition @ 10 uM” value is given as -1.83%.
